Earlier results on 39 sequences are cited in paper PMC11006913.

The other results are listed elsewhere or left out.

The first data set concerns the target HOXD13 I322L (Homo sapiens) (UniProt P35453). The settings on record: PBM; conditions not shown; double strand, one strand shown; scale: upbm affinity estimate (log intensity, higher = more binding, comparable within an allelic series).
For TATTACGA [8-mer TATTACGA], the binding signal was 11.8.
As to GGTTAAAC [8-mer GGTTAAAC], the binding signal was 10.8.
For the sequence ATTAACAA [8-mer ATTAACAA], the binding signal is 12.
CCCGTTAA [8-mer CCCGTTAA]: the binding signal was 11.8.
For CGAGTAAA [8-mer CGAGTAAA], the binding signal was 10.7.
As to CGTAAAAA [8-mer CGTAAAAA], the binding signal was 12.
With GTTAACAA [8-mer GTTAACAA], the binding signal is 11.9.
Turning to GTTGTTAA [8-mer GTTGTTAA], the binding signal was 11.9.
Take TCTCGTAA [8-mer TCTCGTAA]: the binding signal was 12.4.
Take AGTTTACC [8-mer AGTTTACC]: the binding signal is 10.8.
Consider GTAAAGGA [8-mer GTAAAGGA], for which the binding signal is 10.8.
For GTTAACGA [8-mer GTTAACGA], the binding signal was 12.3.
On to CTCGTAAG [8-mer CTCGTAAG], for which the binding signal is 11.9.
Turning to GTTAACTA [8-mer GTTAACTA], the binding signal was 11.8.
Turning to CGTAAAAC [8-mer CGTAAAAC], the binding signal is 11.9.

The target in the next data set is HOXD13 N298S (Homo sapiens) (UniProt P35453). As to conditions: PBM; conditions not shown; double strand, one strand shown; scale: upbm affinity estimate (log intensity, higher = more binding, comparable within an allelic series).
In the case of CATAGTGA [8-mer CATAGTGA], the binding signal was 10.7.
Regarding CGAGTAAA [8-mer CGAGTAAA], the binding signal was 10.8.
As for TCTCGTAA [8-mer TCTCGTAA], the binding signal was 12.4.
Regarding ATCATTAA [8-mer ATCATTAA], the binding signal is 12.4.
Consider AGTTTACC [8-mer AGTTTACC], for which the binding signal was 10.8.
For CATAAATC [8-mer CATAAATC], the binding signal was 12.5.
Consider GTAAAGGA [8-mer GTAAAGGA], for which the binding signal was 10.9.
As for GTTATCAA [8-mer GTTATCAA], the binding signal was 10.8.
On to GTTAATAA [8-mer GTTAATAA], for which the binding signal was 12.5.
CTTCATGA [8-mer CTTCATGA]: the binding signal was 10.8.
In the case of GTCTCATA [8-mer GTCTCATA], the binding signal was 11.1.
Take AAGTCATT [8-mer AAGTCATT]: the binding signal is 11.
As to TATTAAAA [8-mer TATTAAAA], the binding signal was 12.5.

The next data set concerns the target HOXD13 Q325K (Homo sapiens) (UniProt P35453). The settings on record: PBM; conditions not shown; double strand, one strand shown; scale: upbm affinity estimate (log intensity, higher = more binding, comparable within an allelic series).
AGATAAAC [8-mer AGATAAAC]: the binding signal is 12.2.
Take GCATTAAA [8-mer GCATTAAA]: the binding signal is 12.4.
For the sequence GTGTAAAA [8-mer GTGTAAAA], the binding signal was 12.3.
As for ATTATACC [8-mer ATTATACC], the binding signal was 12.2.
On to ATTATCCG [8-mer ATTATCCG], for which the binding signal is 12.1.
Regarding GGTTAAAC [8-mer GGTTAAAC], the binding signal is 11.4.
Regarding CGAGTAAA [8-mer CGAGTAAA], the binding signal is 11.
In the case of GGTTTAAA [8-mer GGTTTAAA], the binding signal is 12.6.
As for GGATAAAA [8-mer GGATAAAA], the binding signal is 13.2.
Regarding GTTATCAA [8-mer GTTATCAA], the binding signal is 10.7.
Turning to GGCATAAA [8-mer GGCATAAA], the binding signal was 13.1.
As for GGATAAAC [8-mer GGATAAAC], the binding signal was 13.
Turning to CAGATAAA [8-mer CAGATAAA], the binding signal was 12.5.
CTTTATCC [8-mer CTTTATCC]: the binding signal is 12.6.
For the sequence GTATTAAC [8-mer GTATTAAC], the binding signal was 12.4.
As to TGGGATAA [8-mer TGGGATAA], the binding signal is 12.1.
As for ATTTATGC [8-mer ATTTATGC], the binding signal was 12.4.
Regarding AGAATAAA [8-mer AGAATAAA], the binding signal is 12.2.

The target of another data set is HOXD13 Q325R (Homo sapiens) (UniProt P35453). As to conditions: PBM; conditions not shown; double strand, one strand shown; scale: upbm affinity estimate (log intensity, higher = more binding, comparable within an allelic series).
As to AGTTTACC [8-mer AGTTTACC], the binding signal is 10.6.
With GTTATCAA [8-mer GTTATCAA], the binding signal was 10.8.
Consider TATTAAAA [8-mer TATTAAAA], for which the binding signal was 12.1.

A further data set addresses HOXD13 S316C (Homo sapiens) (UniProt P35453). As to conditions: PBM; conditions not shown; double strand, one strand shown; scale: upbm affinity estimate (log intensity, higher = more binding, comparable within an allelic series).
Regarding CATAGTGA [8-mer CATAGTGA], the binding signal was 10.6.
In the case of GTTATCAA [8-mer GTTATCAA], the binding signal was 10.6.
Regarding GTCTCATA [8-mer GTCTCATA], the binding signal was 10.8.
With AAGTCATT [8-mer AAGTCATT], the binding signal was 10.6.
